For orientation: % Inhibition means the relative decrease from the control value, in per cent.

Among all 150,000 compounds or so, about 540 (0.36%) showed an effect of 50% or more. Some of the results follow.

41 compounds from ChEMBL document CHEMBL4888484, “Replenishing the malaria drug discovery pipeline: Screening and hit evaluation of the MMV Hit Generation Library 1 (HGL1) against asexual blood stage Plasmodium falciparum ,using a nano luciferase reporter read-out” (2022) can be followed below.

This assay relates to Plasmodium falciparum. The assay can be described thus: Primary screen in NF54 nanoGlo assay, in single point, at 2uM, 72h; a lower Z score goes with more inhibition. The assay is classed as functional, Erythrocyte. The following applies: timepoint 72 hour.
Regarding `CCc1ccc(CN2CCC3(CC2)C[C@@H]3C(=O)N2CCCN(C)CC2)cc1`, the “% Inhibition” value is recorded as -12% and the Z score is listed as 1.57.

In the case of `Cn1nccc1COc1ccccc1N`, the “% Inhibition” value is on record as 34% and the Z score was -3.88.

Regarding `CCc1cccc(S(=O)(=O)N(C)[C@@]2(C#N)CCOC2)c1`, the “% Inhibition” value is listed as 0% and the Z score is on record as -0.02.

As for `C[C@@H](Cc1ccc(F)c(Br)c1)C(=O)Nc1nnn[nH]1`, the “% Inhibition” value is on record as 4% and the Z score is reported as -0.52.

On to `CC1CCN(Cc2nc3cc(NC(=O)C4CCCCC4)ccc3n2C)CC1`, for which the “% Inhibition” value was -18% and the Z score stood at 1.63.

Consider `Cc1csc([C@H]2CCCN(Cc3ncccc3C(=O)O)C2)n1`, for which the “% Inhibition” value was determined as 0% and the Z score was -0.04.

For `CCCC(CCC)S(=O)(=O)Cc1nc(-c2ccco2)no1`, the “% Inhibition” value is reported as -4% and the Z score is listed as 0.42.

As to `CCCN(CCC)C(=O)Nc1ccc(OC)c(OC)c1`, the “% Inhibition” value is given as -1% and the Z score is recorded as 0.19.

`c1cncc(CN(Cc2ccco2)CC2CCOCC2)c1`: the “% Inhibition” value is -7% and the Z score was determined as 0.94.

Consider `COc1ccc([N+]2=C3CCCCN3C[C@]2(O)c2ccc(C)cc2)cc1`, for which the “% Inhibition” value is listed as -9% and the Z score was found to be 1.1.

`COc1cccc([C@H]2OCC(C)(C)n3c(-c4ccc(C)cc4)c4c(=O)n(C)c(=O)n(C)c4c32)c1`: the “% Inhibition” value is given as 10% and the Z score is -1.8.

With `COC(=O)c1ccc(NC(=O)N2CCCCC[C@H]2c2cccc(C)c2)cc1`, the “% Inhibition” value is given as -14% and the Z score is 1.82.

On to `Cc1c(-c2ccccc2)[nH]c2c(CNC(=O)C3CCN(C)CC3)cc(Cl)cc12`, for which the “% Inhibition” value is 0% and the Z score came to 0.07.

In the case of `O=C(O)c1ccc(Cn2nnn(C3CC3)c2=O)cc1`, the “% Inhibition” value was 13% and the Z score is -1.35.

Regarding `COc1ccc([C@H](C)NC(=O)C2CCN(c3cnc4nccnc4c3)CC2)cc1`, the “% Inhibition” value was -3% and the Z score was found to be 0.53.

Take `CC1(C)C2OCCC2C1OC(=O)C1CCCN(C(N)=O)C1` (configuration not stated): the “% Inhibition” value stood at 20% and the Z score is -2.52.

In the case of `c1nc2cc(NCc3nc(C4CCCC4)no3)ccc2s1`, the “% Inhibition” value was -5% and the Z score is recorded as 0.96.

On to `Cc1cccc(CN(Cc2cnn(C)c2)Cc2cccc(C)n2)n1`, for which the “% Inhibition” value is 5% and the Z score is on record as -0.64.

Regarding `O=S(=O)(c1ccnc(NC[C@H]2CCCCC2(F)F)c1)N1CCCC1`, the “% Inhibition” value is on record as -5% and the Z score was determined as 0.9.

With `COc1ccccc1-c1nc(CN2CCN(c3ncnc(C)c3C)CC2)c(C)o1`, the “% Inhibition” value was found to be 4% and the Z score is -0.6.

Turning to `CC(C)n1cc(NC(=O)[C@@H]2CCC(=O)N2C)cn1`, the “% Inhibition” value is on record as 3% and the Z score is listed as -0.26.

For the compound `CC1CCC(NC(=O)CN2CC[C@H](O)C23CCCC3)CC1` (some centres not stated), the “% Inhibition” value was 3% and the Z score is -0.5.

Consider `CCN1CCC[C@@H]1CNS(=O)(=O)c1cc(-c2nc(-c3cccc(Cl)c3)cs2)n(C)c1C`, for which the “% Inhibition” value is reported as -10% and the Z score is given as 1.17.

For `CN(C)C1CCCC1Oc1ncc(Cl)cn1` (configuration not stated), the “% Inhibition” value is reported as -9% and the Z score stood at 1.37.

Take `Cc1nc(NC(=O)Cn2nc(-n3ccc4ccccc43)ccc2=O)sc1C`: the “% Inhibition” value is on record as -2% and the Z score is listed as 0.37.

Consider `c1ccc(-c2nc(-c3nccn3CCCc3nnn[nH]3)co2)cc1`, for which the “% Inhibition” value is 2% and the Z score is -0.32.

On to `COCCn1cc(C(=O)NC2CCCCCCC2)c(=O)c(C(=O)N2C[C@@H](C)O[C@@H](C)C2)c1`, for which the “% Inhibition” value is recorded as -19% and the Z score worked out at 2.39.

Consider `CCN1CCCN(S(=O)(=O)c2ccnn2C(C)C)CC1`, for which the “% Inhibition” value is reported as -16% and the Z score is recorded as 1.86.

Take `COc1cc(F)ccc1-c1ccc2nc[nH]c2c1`: the “% Inhibition” value is reported as -11% and the Z score was 2.01.

On to `O=C1N(CCC2CCCCC2)CCC[C@@]1(O)CN1CCc2[nH]ncc2C1`, for which the “% Inhibition” value is -8% and the Z score is on record as 0.93.

As to `CC1CCN(C(=O)c2ccc(Br)cc2F)C2CCCCC12` (configuration not stated), the “% Inhibition” value is reported as -1% and the Z score was 0.13.

As for `Cn1ccc(C(=O)Nc2nc(-c3cccs3)cs2)n1`, the “% Inhibition” value is -18% and the Z score is 2.37.

Consider `CCc1cccc(NC(=O)[C@H](CC(C)C)NC(N)=O)c1`, for which the “% Inhibition” value is given as -6% and the Z score was 0.59.

Regarding `CC[C@@H](CO)NC(=O)c1cc(C)cc(F)c1`, the “% Inhibition” value amounted to 29% and the Z score is on record as -3.9.

In the case of `CN(c1ccc(F)cc1)S(=O)(=O)c1ccc(Cl)c(C(=O)N2CCS(=O)(=O)CC2)c1`, the “% Inhibition” value is 10% and the Z score was -1.62.

For the compound `COc1c(CNC(=O)[C@@H]2CCc3cccc(O)c32)oc2ccccc12`, the “% Inhibition” value is reported as -7% and the Z score was determined as 0.78.

For the compound `COc1ccc2[nH]c3c(c2c1)CCN(C(=O)c1ccc(C(F)(F)F)c(F)c1)[C@@H]3c1cc(F)c(F)cc1F`, the “% Inhibition” value is recorded as -5% and the Z score is listed as 0.54.

As to `Cn1ccc(NS(=O)(=O)c2ccc3c(c2)S(=O)(=O)NC=N3)n1`, the “% Inhibition” value is on record as -15% and the Z score is recorded as 2.04.

For the compound `C[C@]1(C(=O)Nc2nnc(C3CC3)s2)CC1(Cl)Cl`, the “% Inhibition” value is reported as 0% and the Z score is listed as -0.04.

Regarding `COC(=O)[C@H](C)N(Cc1ncnn1C)C1CCC1`, the “% Inhibition” value is recorded as -18% and the Z score turned out to be 2.06.

Take `CO[C@](C)(C(=O)NCc1nc(CO)cs1)C1CC1`: the “% Inhibition” value is given as -7% and the Z score worked out at 0.95.
